{"source": "paper PMC12820563", "note": "Some of the results follow. The list includes weakly bound sequences."}
{"target": "T1, MBP-FoxP3dN (UniProt Q99JB6)", "T1 sequence": "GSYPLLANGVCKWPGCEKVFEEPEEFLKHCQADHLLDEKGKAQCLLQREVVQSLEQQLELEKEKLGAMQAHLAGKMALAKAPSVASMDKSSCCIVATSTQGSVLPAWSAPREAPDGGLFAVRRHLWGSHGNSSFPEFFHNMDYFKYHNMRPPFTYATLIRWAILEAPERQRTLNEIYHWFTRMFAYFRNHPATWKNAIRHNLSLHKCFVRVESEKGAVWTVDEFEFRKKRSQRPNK", "assay": "PD-seq (MBP pull-down with sequencing)", "details": "20 mM Tris-HCl pH 7.5, 100 mM NaCl, 1.5 mM MgCl2, 0.4 uM protein, 0.1 uM dsDNA library, 30 min, room temperature, amylose pull-down; high values mean tight binding; double strand, one strand shown"}
{"sequence": "GATGATTGTTCTCCCAGCTGATGAATTTATCTCCTCGAGTAAACAAATTTTCCTAATCTTTCTGTTCAAGCGCCATCTAC", "binding signal (RPM ratio (pull-down/input))": 0.631}
{"sequence": "GATGATTGTTCTCCCAGCTGATGAATTATCAAATTCGAGTAAACAAATTTTCCTAATCTTTCTGTTCAAGCGCCATCTAC", "binding signal (RPM ratio (pull-down/input))": 0.343}
{"sequence": "GATGATTGTTCTCCCAGCTGATGAATTGCTTAGGTCGAGTAAACAAATTTTCCTAATCTTTCTGTTCAAGCGCCATCTAC", "binding signal (RPM ratio (pull-down/input))": 0.744}
{"sequence": "GATGATTGTTCTCCCAGCTGATGAATTACGCAAATCGAGTAAACAAATTTTCCTAATCTTTCTGTTCAAGCGCCATCTAC", "binding signal (RPM ratio (pull-down/input))": 0.792}
{"sequence": "GATGATTGTTCTCCCAGCTGATGAATTTTATTTTTCGAGTAAACAAATTTTCCTAATCTTTCTGTTCAAGCGCCATCTAC", "binding signal (RPM ratio (pull-down/input))": 4.17}
{"sequence": "GATGATTGTTCTCCCAGCTGATGAATTCGGCCAATCGAGTAAACAAATTTTCCTAATCTTTCTGTTCAAGCGCCATCTAC", "binding signal (RPM ratio (pull-down/input))": 0.501}
{"sequence": "GATGATTGTTCTCCCAGCTGATGAATTAAAATCGTCGAGTAAACAAATTTTCCTAATCTTTCTGTTCAAGCGCCATCTAC", "binding signal (RPM ratio (pull-down/input))": 0.286}
{"sequence": "GATGATTGTTCTCCCAGCTGATGAATTCAAGCACTCGAGTAAACAAATTTTCCTAATCTTTCTGTTCAAGCGCCATCTAC", "binding signal (RPM ratio (pull-down/input))": 0.542}
{"sequence": "GATGATTGTTCTCCCAGCTGATGAATTTTATAGGTCGAGTAAACAAATTTTCCTAATCTTTCTGTTCAAGCGCCATCTAC", "binding signal (RPM ratio (pull-down/input))": 0.391}
{"sequence": "GATGATTGTTCTCCCAGCTGATGAATTATCATCGTCGAGTAAACAAATTTTCCTAATCTTTCTGTTCAAGCGCCATCTAC", "binding signal (RPM ratio (pull-down/input))": 0.418}
{"sequence": "GATGATTGTTCTCCCAGCTGATGAATTTTTTAACTCGAGTAAACAAATTTTCCTAATCTTTCTGTTCAAGCGCCATCTAC", "binding signal (RPM ratio (pull-down/input))": 0.215}
{"sequence": "GATGATTGTTCTCCCAGCTGATGAATTCGGGCGTTCGAGTAAACAAATTTTCCTAATCTTTCTGTTCAAGCGCCATCTAC", "binding signal (RPM ratio (pull-down/input))": 0.948}
{"sequence": "GATGATTGTTCTCCCAGCTGATGAATTCATCTGTTCGAGTAAACAAATTTTCCTAATCTTTCTGTTCAAGCGCCATCTAC", "binding signal (RPM ratio (pull-down/input))": 0.475}
{"sequence": "GATGATTGTTCTCCCAGCTGATGAATTCACATGATCGAGTAAACAAATTTTCCTAATCTTTCTGTTCAAGCGCCATCTAC", "binding signal (RPM ratio (pull-down/input))": 0.312}
{"sequence": "GATGATTGTTCTCCCAGCTGATGAATTGGGGAGTTCGAGTAAACAAATTTTCCTAATCTTTCTGTTCAAGCGCCATCTAC", "binding signal (RPM ratio (pull-down/input))": 0.363}
{"sequence": "GATGATTGTTCTCCCAGCTGATGAATTTGAGAGGTCGAGTAAACAAATTTTCCTAATCTTTCTGTTCAAGCGCCATCTAC", "binding signal (RPM ratio (pull-down/input))": 0.301}
{"sequence": "GATGATTGTTCTCCCAGCTGATGAATTGCGCTCGTCGAGTAAACAAATTTTCCTAATCTTTCTGTTCAAGCGCCATCTAC", "binding signal (RPM ratio (pull-down/input))": 1.35}
{"sequence": "GATGATTGTTCTCCCAGCTGATGAATTCTGCCTGTCGAGTAAACAAATTTTCCTAATCTTTCTGTTCAAGCGCCATCTAC", "binding signal (RPM ratio (pull-down/input))": 5.17}
{"sequence": "GATGATTGTTCTCCCAGCTGATGAATTAACCATCTCGAGTAAACAAATTTTCCTAATCTTTCTGTTCAAGCGCCATCTAC", "binding signal (RPM ratio (pull-down/input))": 0.336}
{"sequence": "GATGATTGTTCTCCCAGCTGATGAATTGAGGTCTTCGAGTAAACAAATTTTCCTAATCTTTCTGTTCAAGCGCCATCTAC", "binding signal (RPM ratio (pull-down/input))": 0.468}
{"sequence": "GATGATTGTTCTCCCAGCTGATGAATTCACCGGTTCGAGTAAACAAATTTTCCTAATCTTTCTGTTCAAGCGCCATCTAC", "binding signal (RPM ratio (pull-down/input))": 0.264}
{"sequence": "GATGATTGTTCTCCCAGCTGATGAATTGTGGTCCTCGAGTAAACAAATTTTCCTAATCTTTCTGTTCAAGCGCCATCTAC", "binding signal (RPM ratio (pull-down/input))": 1.06}
{"sequence": "GATGATTGTTCTCCCAGCTGATGAATTTCTCGGGTCGAGTAAACAAATTTTCCTAATCTTTCTGTTCAAGCGCCATCTAC", "binding signal (RPM ratio (pull-down/input))": 0.193}
{"sequence": "GATGATTGTTCTCCCAGCTGATGAATTAATTCATTCGAGTAAACAAATTTTCCTAATCTTTCTGTTCAAGCGCCATCTAC", "binding signal (RPM ratio (pull-down/input))": 0.344}
{"sequence": "GATGATTGTTCTCCCAGCTGATGAATTCATACATTCGAGTAAACAAATTTTCCTAATCTTTCTGTTCAAGCGCCATCTAC", "binding signal (RPM ratio (pull-down/input))": 0.538}
{"sequence": "GATGATTGTTCTCCCAGCTGATGAATTATAAGTCTCGAGTAAACAAATTTTCCTAATCTTTCTGTTCAAGCGCCATCTAC", "binding signal (RPM ratio (pull-down/input))": 0.422}
{"sequence": "GATGATTGTTCTCCCAGCTGATGAATTCGGGATTTCGAGTAAACAAATTTTCCTAATCTTTCTGTTCAAGCGCCATCTAC", "binding signal (RPM ratio (pull-down/input))": 0.323}
{"sequence": "GATGATTGTTCTCCCAGCTGATGAATTTCTTCATTCGAGTAAACAAATTTTCCTAATCTTTCTGTTCAAGCGCCATCTAC", "binding signal (RPM ratio (pull-down/input))": 0.246}
{"sequence": "GATGATTGTTCTCCCAGCTGATGAATTGACGGTGTCGAGTAAACAAATTTTCCTAATCTTTCTGTTCAAGCGCCATCTAC", "binding signal (RPM ratio (pull-down/input))": 0.57}
{"sequence": "GATGATTGTTCTCCCAGCTGATGAATTCATCCGGTCGAGTAAACAAATTTTCCTAATCTTTCTGTTCAAGCGCCATCTAC", "binding signal (RPM ratio (pull-down/input))": 0.268}
{"sequence": "GATGATTGTTCTCCCAGCTGATGAATTTGGCATTTCGAGTAAACAAATTTTCCTAATCTTTCTGTTCAAGCGCCATCTAC", "binding signal (RPM ratio (pull-down/input))": 6.16}
{"sequence": "GATGATTGTTCTCCCAGCTGATGAATTTTCACTATCGAGTAAACAAATTTTCCTAATCTTTCTGTTCAAGCGCCATCTAC", "binding signal (RPM ratio (pull-down/input))": 0.375}
